Experimental data taken from US20230272055A1, “ANTI-MUTANT CALRETICULIN (CALR) ANTIBODIES AND USES THEREOF” (Incyte Corporation, priority 2021, published 2023).

What was measured:
[1] = system: pSTAT3 and pSTAT5 in CD34+ cells harboring mutCALR; assay: Western blot of pSTAT3 and pSTAT5 in CD34+ cells; format: cell-based, human; settings: 12 hours, dose-dependent, FIG. 19C
Procedure: In another experiment, the CD34^+ cells described above were added at 50,000 cells/well to a 12-well plate containing 2.0 mL culture media with specified concentrations of clone 74 or isotype control. The treatment period was 12 hours. After 12 hours, cells were collected, washed and lysed using lysing buffer (Cell Signaling Technologies) supplemented with 1× Halt™ Protease and Phosphatase Inhibitor Cocktail (Thermo Fisher Scientific). Protein samples (6 μg) were separated in pre-casted 4-12% TrisGglycine gels (Thermo Fisher Scientific) and transferred to nitrocellulose membranes using iBlot 2 Dry Blotting System and iBlot™ 2 Transfer Stacks (Thermo Fisher Scientific). The nitrocellulose membranes were blocked with StartingBlock (Thermo Fisher Scientific) for one hour and probed with antibodies to detect pSTAT5 (Cell Signaling), STAT5 (Cell Signaling), pSTAT3 (Cell Signaling), STAT3 (Cell Signaling), and β-actin (Cell Signaling). Detection was performed using horseradish peroxidase (HRP)-conjugated secondary rabbit antibody (Cell Signaling) and chemiluminescence HRP substrate (Thermo Scientific).

[2] = system: pSTAT5 in CD34+ cells isolated from MPN patients; assay: pSTAT5 in primary patient CD34+ cells (Meso Scale); format: cell-based, human; settings: FIG. 19A
Procedure: CD34^+ cells isolated from MPN patients carrying the CALR mutation were used to characterize the ability of an anti-mutCALR antibody to inhibit the mutCALR-derived oncogenic function. Peripheral blood mononuclear cells (PBMCs) were isolated from non-identified blood samples from MPN patients by Ficoll gradient extraction (Fisher Scientific) and CD34^+ cells were enriched using magnetic enrichment (Miltenyi Biotec). CD34^+ cells were cultured for seven days in SFEM-II media ([…] Technologies) containing hSCF, hFLT3L, TPO, LDL2698, SR1, and UM171.
CD34+ cells (50,000 cells/well) were then plated into 96-well plates and treated with a mutCALR or isotype control antibody for 2 hours. Following treatment, plates were centrifuged, the supernatant was aspirated and subsequently washed with PBS. After centrifugation the cell pellets were lysed using lysing buffer (Cell Signaling Technologies) supplemented with 1× Halt™ Protease and Phosphatase Inhibitor Cocktail (Thermo Fisher Scientific). Lysates were added to the Phospho (Tyr694)/Total STAT5a,b whole cell lysate kit (Meso Scale Diagnostics) and phospho-STAT5 levels were then quantitated using Meso Sector S 600 (Meso Scale Diagnostics). […] Moreover, pSTAT5 was not inhibited in CD34+ cells harboring the V617F JAK2 mutation (FIG. 19A).

B1: 74 (antibody)
heavy: EVQLVQSGAEVKKPGASVKVSCKVSGYTLTELSMQWVRQAPGKGLEWMGGFDPDDAETMYAEKFQGRLTVTEDTSTDTVYMELSSLRSEDTAVYFCATSPGYDFFDYWGQGTLVTVSSASTKGPSVFPLAPSSKSTSGGTAALGCLVKDYFPEPVTVSWNSGALTSGVHTFPAVLQSSGLYSLSSVVTVPSSSLGTQTYICNVNHKPSNTKVDKRV[omitted - human IgG1 Fc with changes]
light: SYVLTQPPSVSVAPGKTARITCTGTSSDVGGYNYVSWYQQKPGQAPVLVVYEVSNRPSGIPERFSGSNSGNTATLTISRVEAGDEADYYCQVWDSSNDLLIFGGGTKLTVLGQPKAAPSVTLFPPSSEELQANKATLVCLISDFYPGAVTVAWKADSSPVKAGVETTTPSKQSNNKYAASSYLSLTPEQWKSHRSYSCQVTHEGSTVEKTVAPTECS
- pSTAT3 inhibition (Western blot) [1]: selectively inhibited
- pSTAT5 inhibition (Western blot) [1]: selectively inhibited
- pSTAT5 inhibition ([2]; CD34+ cells harboring mutCALR, 2 hours, dose-dependent): selectively inhibited
- pSTAT5 inhibition ([2]; CD34+ cells harboring the V617F JAK2 mutation): not inhibited
